These results are taken from paper PMC6919601, “Identification of Plasmodium dipeptidyl aminopeptidase allosteric inhibitors by high throughput screening” (PLoS ONE, 2019).

Screen size: about 110,000 compounds; about 230 (0.21%) showed an effect of 50% or more. Some of the results follow.
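Further: 30 min substrate incubation versus DMSO and 10 µM JCP410 controls.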

Chain of DPAP1 (Q8IIJ9 whole entry, looked up): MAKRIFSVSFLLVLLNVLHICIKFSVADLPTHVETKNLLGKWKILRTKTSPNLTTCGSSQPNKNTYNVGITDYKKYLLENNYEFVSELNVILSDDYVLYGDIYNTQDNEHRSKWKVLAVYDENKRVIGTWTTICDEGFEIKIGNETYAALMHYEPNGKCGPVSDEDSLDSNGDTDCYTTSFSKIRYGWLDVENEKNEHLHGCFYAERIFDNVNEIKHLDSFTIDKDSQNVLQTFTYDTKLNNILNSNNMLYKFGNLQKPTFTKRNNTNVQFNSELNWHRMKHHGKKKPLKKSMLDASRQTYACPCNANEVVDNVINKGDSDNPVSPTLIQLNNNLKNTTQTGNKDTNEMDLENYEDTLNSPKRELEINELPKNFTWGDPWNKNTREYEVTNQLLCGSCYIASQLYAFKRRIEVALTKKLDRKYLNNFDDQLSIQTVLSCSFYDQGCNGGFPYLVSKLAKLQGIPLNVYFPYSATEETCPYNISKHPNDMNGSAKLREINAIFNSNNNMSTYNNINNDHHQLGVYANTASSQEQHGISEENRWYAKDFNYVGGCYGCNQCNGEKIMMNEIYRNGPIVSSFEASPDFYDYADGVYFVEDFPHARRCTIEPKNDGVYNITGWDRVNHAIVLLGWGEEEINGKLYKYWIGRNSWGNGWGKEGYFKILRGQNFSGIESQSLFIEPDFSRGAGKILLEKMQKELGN

The assay concerns the target DPAP1 (Plasmodium falciparum, UniProt Q8IIJ9). Nature of the assay: primary screen, percent inhibition; read by cleavage of a fluorogenic dipeptide substrate; higher = more effect of the substance. Also on record: species or system P. falciparum D10 trophozoite lysates; single well.
Consider `Cc1cccc(NC(=O)COc2ccc(Cl)cc2C2C3=C(O)CCCC3=NC3=C2C(=O)CCC3)c1` (stereo not shown), for which the “% Inhibition @ 10 uM” value is on record as -6.2%.
Take `CC1(C)CC(=O)C2=C(C1)OC(c1ccccc1)=CC2c1ccccc1` (stereo not shown): the “% Inhibition @ 10 uM” value is on record as -5.82%.
With `CCC(C)NC(=O)Cn1c(=O)n(CC(=O)NCc2ccc(C)cc2)c(=O)c2sccc21` (stereo not shown), the “% Inhibition @ 10 uM” value is reported as -0.591%.
Regarding `O=C(NCCOCC(F)(F)C(F)F)C(=O)c1cn(Cc2ccc(F)cc2)c2ccccc12`, the “% Inhibition @ 10 uM” value is -4.42%.
Then `CC1(C)CC(=O)c2c(O)cc(=O)n(-c3cccc(Cl)c3)c2C1`, with 0.726%; and `N#C/C(=C\c1ccccc1)c1nc(-c2ccccc2)cs1`, with -3.82%.
`Cn1c(=O)c2c(nc(SCC(N)=O)n2Cc2cccc(Cl)c2)n(C)c1=O`: the “% Inhibition @ 10 uM” value worked out at 0.751%.
To `CC(=O)c1sc(N2C(=O)c3oc4ccc(C)cc4c(=O)c3C2c2ccc(F)cc2)nc1C` (stereo not shown) belongs 3.73%; to `O=C(Nc1ccccc1)c1ccc(CSc2ccccn2)cc1`, 3.62%.
As for `O=C1CCCC2=C1c1ccc3ccccc3c1NC2c1ccc(O)c(O)c1` (stereo not shown), the “% Inhibition @ 10 uM” value came out at 4.32%.
Consider `CC(C)(C)OC(=O)N1CCC(c2c(C(=O)N3CCOCC3)cnn2-c2ccccc2)CC1`, for which the “% Inhibition @ 10 uM” value is -2.53%.
As for `Cc1ccsc1/C=C1\Sc2ccccc2C1=O`, the “% Inhibition @ 10 uM” value amounted to 3.92%.
With `O=C(c1ccc(CSc2nc3ccncc3[nH]2)cc1)N1CCN(c2ccccn2)CC1`, the “% Inhibition @ 10 uM” value stood at 1.8%.
As to `CCCS(=O)(=O)N1CCCC(C(=O)N2CCN(c3ccccn3)CC2)C1` (stereo not shown), the “% Inhibition @ 10 uM” value came out at 1.62%.
With `Cc1cc(N2CCCCC2C)n2ncnc2n1` (stereo not shown), the “% Inhibition @ 10 uM” value was -0.0108%.
Then `O=S(=O)(c1c[nH]cn1)N1CCN(c2ccccn2)CC1`, with -3.61%; and `Cc1ccc(-n2nc(C)c3c(C)c(CCC(=O)N4CCC(C(N)=O)CC4)c(C)nc32)cc1C`, with -4.24%.
Consider `CNc1nc(C)c(C(=O)OCc2ccccc2)s1`, for which the “% Inhibition @ 10 uM” value is -1.47%.
Take `CC(C)NC(=O)c1ccc(Cn2cc(Cl)cn2)cc1`: the “% Inhibition @ 10 uM” value came to 0.687%.
As for `Cc1nc2ccc(NC(=S)N3CC4CC3CC(C)(C)C4C)cc2nc1C` (stereo not shown), the “% Inhibition @ 10 uM” value was -1.99%.
Take `CCCC(=O)Nc1nc2c(s1)C(=O)CC(C)(C)C2`: the “% Inhibition @ 10 uM” value is listed as -4.12%.
Regarding `COc1ccccc1C(=O)CC1(O)C(=O)Nc2ccc(Br)cc21` (stereo not shown), the “% Inhibition @ 10 uM” value is 2.44%.
Then `COc1ccc(CCCC(=O)Nc2ccccc2OC)c(C)c1`, with -14.5%; and `COc1ccccc1NC(=O)c1c(C(=O)O)cccc1[N+](=O)[O-]`, with -8.77%.
To `CC(CCN1CCN(c2ccccc2)CC1)c1ccccc1` (stereo not shown) belongs 1.38%.
`COc1ccc(CCn2cnc3sc4c(c3c2=N)CCCC4)cc1OC`: the “% Inhibition @ 10 uM” value is recorded as -7.09%.
On to `CCN(CC)C(=O)c1cc(-c2ccc(O)cc2)on1`, for which the “% Inhibition @ 10 uM” value is -2.74%.
As for `COc1ccc(CN2CCN(Cc3ccc(OC)c(OC)c3OC)CC2)cc1Br`, the “% Inhibition @ 10 uM” value is reported as -9.07%.
On to `COc1cc(/C=N/N=C2\CC(c3ccccc3)N=N2)ccc1OCC(=O)O` (stereo not shown), for which the “% Inhibition @ 10 uM” value is given as -3.36%.
For `COc1ccc(CN(C(=O)c2cc(=O)c3ccc(C)cc3o2)C2CCS(=O)(=O)C2)cc1OC` (stereo not shown), the “% Inhibition @ 10 uM” value is given as -1.47%.
To `COC(=O)c1ccc2oc(=O)c(S(=O)(=O)c3ccc(OC)cc3)cc2c1` belongs -0.326%.
`Cc1cc(C)n(-c2nc3ccccc3s2)n1`: the “% Inhibition @ 10 uM” value was -2.28%.
For the compound `O=C1CCC(=O)N1CCn1c2ccc(Br)cc2c2nc3ccccc3nc21`, the “% Inhibition @ 10 uM” value worked out at 3.24%.
`COc1ccc(S(=O)(=O)N2CCC(C(=O)NCc3cccnc3)CC2)cc1`: the “% Inhibition @ 10 uM” value was -2.14%.
On to `C=CCc1cc(/C=C2/SC(=O)N(C)C2=O)cc(OCC)c1O`, for which the “% Inhibition @ 10 uM” value is given as -4.7%.
`COC(=O)c1sc2nc3c(c(-c4ccc(C)o4)c2c1N)CCCC3`: the “% Inhibition @ 10 uM” value is recorded as -4.11%.
To `CN1CCCN(Cc2ccc(Br)s2)CC1` belongs -3.56%.
Then `O=C(Nc1cccnc1)C(Sc1ccccc1)c1ccccc1` (stereo not shown), with 2.36%; and `Cc1cc(C)nc(NS(=O)(=O)c2ccc(NC(=O)COc3ccccc3C(C)C)cc2)n1`, with -0.297%; and `O=C1CCCN1CP(=O)(O)CN1CCCCC1`, with -0.582%.
As to `O=S(=O)(Nc1ccccn1)c1ccc(Cl)cc1`, the “% Inhibition @ 10 uM” value is listed as 4.81%.
For the compound `CC(=O)c1ccc(NC(=O)CC(C)(C)C)cc1`, the “% Inhibition @ 10 uM” value is -1.38%.
Take `Cc1cc(C)nc(N=C(N)N)n1`: the “% Inhibition @ 10 uM” value is -1.52%.
Regarding `COc1ccc(NC(=O)C(C)Oc2ccccc2C)cc1` (stereo not shown), the “% Inhibition @ 10 uM” value is recorded as -2.76%.
`CCOP(=O)(OCC)C(O)c1ccccc1` (stereo not shown): the “% Inhibition @ 10 uM” value is listed as 1.54%.
Then `CCOc1ccc(S(=O)(=O)Nc2ccc(S(=O)(=O)Nc3ccc(Cl)cc3)cc2)cc1`, with 1.64%; and `CCOc1ccc2nc(N3CCCC(C(=O)NCCN4CCOCC4)C3)sc2c1` (stereo not shown), with 1.8%; and `CN1C(=O)S/C(=C\c2cc(Cl)c(OCC(=O)O)c(Cl)c2)C1=O`, with -6.87%.
Take `O=C1c2ccccc2C(=O)C1c1nc2ccccc2[nH]1`: the “% Inhibition @ 10 uM” value is given as 3.96%.
For `CN(C)c1ccc(-c2ccc(O)cc2O)cc1`, the “% Inhibition @ 10 uM” value was determined as 2.13%.
Then `O=C1c2cccc3c([N+](=O)[O-])ccc(c23)N1c1ccccc1`, with 13.9%; and `Cc1cc(C)c2nc(Nc3nc(C)cc(O)n3)nc(C)c2c1`, with -2.67%.
As for `Cc1nc(SCc2nc3ccccc3[nH]2)nc(O)c1Cc1ccccc1`, the “% Inhibition @ 10 uM” value is -2.21%.
On to `CCCc1nn(-c2ccc(F)cc2)c(O)c1/C=N/CC1CCNCC1`, for which the “% Inhibition @ 10 uM” value is 1.98%.
As to `N#Cc1nc(-c2ccc([N+](=O)[O-])cc2)oc1N1CCOCC1`, the “% Inhibition @ 10 uM” value is -3.98%.
As to `COc1cccc(C2CC(C(F)(F)F)n3ncc(C(=O)N4CCOCC4)c3N2)c1` (stereo not shown), the “% Inhibition @ 10 uM” value is given as 0.0289%.
`COc1cccc2c1cc1c(=O)n(CC(=O)NCc3ccc4c(c3)OCO4)nc(C)n12`: the “% Inhibition @ 10 uM” value is 1.68%.
Then `COc1ccc(C(=O)N2CCN(Cc3cc(OC)c(O)c(OC)c3)CC2)cc1`, with -4.35%.
Consider `CCCCOc1cccc(C2c3c(oc4ccccc4c3=O)C(=O)N2c2nc(C)c(C)s2)c1` (stereo not shown), for which the “% Inhibition @ 10 uM” value is recorded as -2.92%.
To `COc1cc(/C=C2\SC(=O)N(Cc3ccccc3)C2=O)c(Br)cc1OCC(=O)O` belongs 16.5%; to `CC(CCc1ccccc1)NC(=O)CNC(=S)N1CC2CC(C1)c1cccc(=O)n1C2` (stereo not shown), 1.16%.
For the compound `COCCNC(=O)c1cnn2c1NC(c1ccc(Br)cc1)CC2C(F)(F)F` (stereo not shown), the “% Inhibition @ 10 uM” value was found to be 1.02%.
With `C[C@@H]1[C@H](c2ccccc2)OC(c2cccs2)N1C` (stereo partly shown), the “% Inhibition @ 10 uM” value was -1.27%.
For the compound `O=C(O)CNc1nc(-c2ccccc2)nc2ccccc12`, the “% Inhibition @ 10 uM” value worked out at 3.86%.
On to `O=S(=O)(c1ccc(Cl)nc1)N1CCN(c2ncccn2)CC1`, for which the “% Inhibition @ 10 uM” value is recorded as -1.36%.
Turning to `CC1(c2ccccc2)CC(C)(C)N(C(=O)C2CCCO2)c2ccccc21` (stereo not shown), the “% Inhibition @ 10 uM” value was determined as 1.62%.
With `CCOC(=O)C1=C(C)N=c2s/c(=C\c3ccccc3OC)c(=O)n2C1c1ccccc1` (stereo not shown), the “% Inhibition @ 10 uM” value is 9.09%.
Then `CCn1c(=O)c2sccc2n2c(CCC(=O)NCc3ccc(C)cc3)nnc12`, with -2.41%.
With `Cc1nn(CC(=O)NC(C)c2ccccc2)c(=O)c2ccccc12` (stereo not shown), the “% Inhibition @ 10 uM” value turned out to be 4.54%.
On to `Brc1ccccc1-c1nc2ccccc2c2nc3ccccc3n12`, for which the “% Inhibition @ 10 uM” value is -4.23%.
On to `COc1ccc(O)c(C2=NN3C(C2)c2ccccc2OC3(C)C)c1` (stereo not shown), for which the “% Inhibition @ 10 uM” value is -1.68%.
In the case of `CC(C)(C)c1ccc(-c2noc(CCC(=O)Nc3cccnc3)n2)cc1`, the “% Inhibition @ 10 uM” value is -3.12%.
Turning to `COc1ccc(S(=O)(=O)N2CCC(C(=O)NC(C)c3ccccc3)CC2)cc1OC` (stereo not shown), the “% Inhibition @ 10 uM” value was 3.16%.
Then `Cc1ccc(C(=O)NC2CCS(=O)(=O)C2)cc1` (stereo not shown), with -2.15%; and `COc1ccc(C(=O)CC#N)cc1`, with 0.66%.
To `COc1ccc2ccc(C(=O)/C=C/c3ccncc3)cc2c1` belongs -2.56%; to `CCC[C@H](N[C@@H](c1ccc(-c2ccc(F)c(F)c2)cc1)C(F)(F)F)C(=O)NC1(C#N)CC1`, 0.173%.
As for `Cc1ccc(Cl)cc1N1CCN(CC(O)COC(C)C)CC1` (stereo not shown), the “% Inhibition @ 10 uM” value worked out at 3.21%.
Turning to `CCN(CC)C(=O)Cn1cc(SCC(=O)NCc2ccc3c(c2)OCO3)c2ccccc21`, the “% Inhibition @ 10 uM” value is -7.1%.
Turning to `CCC(C)NC(=O)C(Cc1ccccc1)NS(=O)(=O)c1cccc2nsnc12` (stereo not shown), the “% Inhibition @ 10 uM” value is reported as -3.23%.
`CC(NC(=O)C1CCN(S(=O)(=O)c2cccc3nonc23)CC1)c1ccccc1` (stereo not shown): the “% Inhibition @ 10 uM” value was 2.35%.
Then `OC(c1ccccc1)C(CN1CCOCC1)c1ccccc1` (stereo not shown), with -1.56%.
Then `OCC1CCCN1Cc1ccccc1Br` (stereo not shown), with 6.06%; and `CC[N+]1=C(C)C(C)(C)c2cc(C)ccc21`, with 0.238%; and `Fc1ccc(N2CCN(Cc3csc(-c4ccccc4)n3)CC2)cc1`, with 2.6%.
Take `Cc1sc2nc(SCC(=O)c3ccccc3)nc(N)c2c1C`: the “% Inhibition @ 10 uM” value is 12.9%.
Take `CN1C(=O)C(O)(CC(=O)c2ccccc2)c2cc(Br)ccc21` (stereo not shown): the “% Inhibition @ 10 uM” value is -2.32%.
Take `Cc1ccc(C)c(OCCCCCc2c(C)n[nH]c2C)c1`: the “% Inhibition @ 10 uM” value is -6.12%.
As to `CCc1ccccc1-n1nnc(-c2nc(-c3cccs3)no2)c1N`, the “% Inhibition @ 10 uM” value is -1.87%.
As for `CC(C)CNC(=O)c1ccccc1NC(=O)c1ccccc1Br`, the “% Inhibition @ 10 uM” value is 2.44%.
`CC1C2=C(O)CC(C)(C)CC2=Nc2sc(C#N)c(N)c21` (stereo not shown): the “% Inhibition @ 10 uM” value was -6.07%.
On to `COc1ccccc1OCC(=O)Nc1cc(C)ccn1`, for which the “% Inhibition @ 10 uM” value is recorded as 2.56%.
As to `O=C1C2C3CCC(C3)C2C(=O)N1c1cccc(O)c1` (stereo not shown), the “% Inhibition @ 10 uM” value is -0.996%.
In the case of `CN(C)S(=O)(=O)c1ccc(C(=O)Nc2c3c(nn2-c2cccc(Cl)c2)CS(=O)(=O)C3)cc1`, the “% Inhibition @ 10 uM” value stood at 0.415%.
For `O=[N+]([O-])c1cc(C(F)(F)F)ccc1N1CCCCC1`, the “% Inhibition @ 10 uM” value was determined as 1.41%.
In the case of `Cc1ccc(-c2nc3ccccc3s2)cc1NC(=O)Cn1cnc2c(=O)n(C)c(=O)n(C)c21`, the “% Inhibition @ 10 uM” value came to 10.6%.
Take `COc1ccc(C2C(C(=O)N3CCOCC3)=C(C)Nc3nc4ccccc4n32)cc1` (stereo not shown): the “% Inhibition @ 10 uM” value is reported as -1.8%.
Take `CCOc1cc(C2C3=C(O)CC(c4ccccc4)CC3=NC(C)=C2C(=O)OC)cc(Cl)c1O` (stereo not shown): the “% Inhibition @ 10 uM” value is recorded as 19.3%.
Take `COc1ccc(CN2CCN(Cc3ccc(Br)cc3)CC2)c(OC)c1`: the “% Inhibition @ 10 uM” value is recorded as 13.4%.
For the compound `CC(C)(CO)Nc1nc(NC2CCCCC2)nc(NC2CCCCC2)n1`, the “% Inhibition @ 10 uM” value is listed as -7.01%.
